Measurements taken from PubChem BioAssay AID624417 (National Center for Advancing Translational Sciences (NCATS), 2012).
Where “and” joins values, the source holds several entries; their conditions need not be identical. Equal values may be shown once. About 6,400 (1.6%) of roughly 410,000 compounds were called active. Inconclusive results, whose numbers are uncertain, are shown with a selection of clear calls. Calls come from the whole dose curve; as a rule, active = well fitted inhibition curve with a large enough effect; inconclusive = small, poorly fitted or top-dose-only effect; inactive = no such curve, though single readings can be large or run the other way. Potencies of inconclusive entries are doubtful fits and often do not repeat.

target: Glucagon-like peptide 1 receptor (Homo sapiens) (UniProt P43220); experiment: qHTS of GLP-1 Receptor Inverse Agonists (Inhibition Mode); conditions: HEK293 GLP-1R CRE-luciferase, luminescence, 24 h, GLP-1R form is constitutively active; series mostly up to 38.3 µM; note: nearly all actives have a fitted effect of over 55% in size
Procedure, shortened: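 Inverse agonism was detected as reduced cAMP-driven luciferase luminescence after 24 h compound treatment. The cells were HEK293 clones expressing constitutively active human GLP-1R with the reporter. Reporter-only and GPR119 cell lines served as counterscreen controls.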
Potency is the fitted concentration of half-maximal effect; tags give direction and shape of the fitted curve.

Sequence of UniProt P43220 (P43220 whole entry, looked up): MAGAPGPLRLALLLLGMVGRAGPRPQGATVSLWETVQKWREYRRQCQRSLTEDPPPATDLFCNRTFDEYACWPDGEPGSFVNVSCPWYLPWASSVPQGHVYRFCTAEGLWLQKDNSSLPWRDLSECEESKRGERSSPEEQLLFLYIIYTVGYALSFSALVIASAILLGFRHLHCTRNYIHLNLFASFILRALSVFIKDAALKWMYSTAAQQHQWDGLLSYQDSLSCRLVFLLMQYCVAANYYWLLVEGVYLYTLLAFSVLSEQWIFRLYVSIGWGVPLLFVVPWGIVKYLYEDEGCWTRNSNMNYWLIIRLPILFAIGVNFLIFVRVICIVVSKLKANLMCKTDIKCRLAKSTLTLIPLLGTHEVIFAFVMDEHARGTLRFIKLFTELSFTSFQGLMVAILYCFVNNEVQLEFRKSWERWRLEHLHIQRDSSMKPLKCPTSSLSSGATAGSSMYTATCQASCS

Potency, active:
CC(C)(C)Cc1c(-c2ccc(F)cc2)nc2ccc(Cl)cn12 5.62 µM
O=C(CCc1cn(Cc2ccccc2Cl)c2ccccc12)NC1CCCCC1 10 µM

Potency, inactive:
CCOc1ccc(N2CC(C)Cn3c2nc2c3c(=O)n(CC(=O)O)c(=O)n2C)cc1 (stereo not given)
C[C@H]1CN([C@@H](C)CO)C(=O)CCCn2nncc2CO[C@H]1CN(C)C(=O)NC1CCCCC1
CCc1ccc(-n2nc3ccc(NC(=O)c4cc(Cl)c(OC)c(Cl)c4)cc3n2)cc1
CCN(CC)CCCNC(=O)C1CCN(C(=O)c2oc3cc4sc(N(C)C)nc4cc3c2C)CC1
CN(C(=O)CSc1nc2ccc(NC(=O)c3ccccc3F)cc2s1)c1ccccc1
CNC(=O)Nc1ccccc1C(=O)Nc1ccccc1
N#Cc1c(-n2ncnc2-c2ccc(Br)cc2)sc2c1CCCCC2
Cc1nc2cc(-c3cccs3)[nH]n2c(=O)c1C
Cc1ccc(N2CC(NC(=O)c3ccc(S(=O)(=O)N4CCCC4)cc3)CC2=O)cc1 (stereo not given)
CCCc1cc(=O)[nH]c(SCC(=O)c2cc(C)n(C)c2C)n1
CCCCCNC(=O)CCCCn1c(=O)[nH]c2cc(OCC)c(OCC)cc2c1=O
CC1CCCCN1S(=O)(=O)c1ccc(C(=O)Nc2ccccc2-c2nc3ccccc3[nH]2)cc1 (stereo not given)
CN(C)CCN(C(=O)CN1C(=O)c2ccccc2C1=O)c1nc2cc3c(cc2s1)OCCO3
COCC#Cc1ccc2c(c1)O[C@@H](CN(C)S(=O)(=O)c1cccc(F)c1)[C@@H](C)CN([C@H](C)CO)S2(=O)=O
CC(C)CC(=O)Nc1ccc(S(=O)(=O)Nc2cc3c(cc2N2CCOCC2)n(C)c(=O)c(=O)n3C)cc1
CCC(=O)Nc1cccc(-c2nnc(SCC(=O)NCc3ccco3)n2C)c1
CC(=O)CSc1nc2ccccc2s1
Oc1c(C(c2ccccc2F)N2CCCCC2)sc2nc(-c3ccco3)nn12 (stereo not given)

Potency, inconclusive:
CCOc1c(Br)cc(/C=C(\C#N)C(=O)NC2CC2)cc1OC 1 µM [inhibitor, full curve, poor fit]
COc1ccc(CN2CCc3nc(Nc4ccccc4)ncc3C2)c(OC)c1OC 10 µM [inhibitor, partial curve, poor fit]
Cc1cccc(/N=C/c2c(O)c3ccccc3oc2=O)n1 7.94 µM [inhibitor, partial curve]
Cc1ccc(Cl)cc1N1CCN(Cc2nnnn2Cc2ccco2)CC1 10 µM [inhibitor, single point]
CN(C(=O)c1cccc(C(F)(F)F)c1)C1CCCc2ccccc21 (stereo not given) 28.2 µM [inhibitor, single point]
CCOc1ccc(C2C(=O)N(C3CCCCCC3)CC(=O)N2CCC2=CCCCC2)cc1OC (stereo not given) 28.2 µM [inhibitor, single point]
Cc1ccc(NC(=O)CN(CCc2ccccc2)S(=O)(=O)c2ccccc2)c(C)c1 28.2 µM [inhibitor, single point]
O=C(/C=C/c1ccc(F)cc1)c1cc(Br)ccc1O 28.2 µM [inhibitor, single point]
Cc1cc(C)c2c(c1)/C(=N/NC(=O)c1ccc(O)cc1)CCC2 10 µM [inhibitor, single point]
Cn1cnc(S(=O)(=O)Nc2ccc(OC(F)F)cc2)c1 11.2 µM [inhibitor, single point]
Fc1ccc(Nc2nc(N3CCOCC3)nc(N3CCOCC3)n2)cc1 28.2 µM [inhibitor, single point]
CCOC(=O)c1cnn(-c2ccc(NS(=O)(=O)c3ccc(Cl)cc3)cc2)c1C(F)(F)F 22.4 µM [inhibitor, single point]
COc1ccccc1C(=O)Oc1ccccc1C(=O)Nc1ccccc1 28.2 µM [inhibitor, single point]
CSc1ccc(CNC(=O)C2CCN(c3nnc(-n4cccc4CNc4ccc(C)cc4)s3)CC2)cc1 12.6 µM [inhibitor, partial curve, poor fit]
O=C(Cn1cc(SCc2ccccc2)c2ccccc21)N1CCCCC1 28.2 µM [inhibitor, single point]
O=S(=O)(Nc1cccc2cccnc12)c1ccccc1 3.55 µM [inhibitor, full curve, poor fit]
COc1ccc(CNC(=O)C2CCC(CNS(=O)(=O)c3ccccc3)CC2)cc1 (stereo not given) 20 µM [inhibitor, partial curve, poor fit]
CC(C)CNC(=S)N1CCC(C(=O)c2ccc(F)cc2)CC1 12.6 µM [inhibitor, partial curve, poor fit]
O=C(Nc1ccc2c(c1)CCCN2C(=O)c1cccs1)c1c(F)cccc1F 5.62 µM [inhibitor, partial curve, poor fit] and 10 µM [inhibitor, partial curve, poor fit]
O=C1N(CC(=O)N2CCc3ccccc32)CCN1Cc1ccccc1Cl 22.4 µM [inhibitor, partial curve, poor fit]
CC(C)c1ccc(NC(=O)c2ccc3c(c2)CCCN3S(C)(=O)=O)cc1 1 µM [inhibitor, full curve, poor fit]
CCOC(=O)C(NCc1ccccc1)(NC(=O)c1ccccc1)C(F)(F)F (stereo not given) 28.2 µM [inhibitor, partial curve, poor fit]
Cc1oc(S(=O)(=O)N2CCCCC2)cc1NC(=O)Nc1ccccc1 11.2 µM [inhibitor, single point]
CCOC(=O)c1ccc(NC(=S)NCC(O)c2ccccc2)cc1 (stereo not given) 31.6 µM [inhibitor, single point]
COC(=O)c1c(NC(=O)C2CC(C)=C(C)CC2C(=O)O)sc2c1CCCCC2 (stereo not given) 25.1 µM [inhibitor, partial curve, poor fit]
O=C(CCCc1ccccc1)Nc1nnc(C(F)(F)F)s1 28.2 µM [inhibitor, single point]
CC(C)(C)C1CCc2c(sc(NC(=O)C3CCCO3)c2C(N)=O)C1 (stereo not given) 6.31 µM [inhibitor, partial curve, poor fit]
O=C(CSc1ccccc1)Nc1ccc(Cl)c(S(=O)(=O)N2CCOCC2)c1 5.62 µM [inhibitor, partial curve, poor fit]
COc1cccc(C(C)(O)c2nc(-c3cc4ccccc4o3)cs2)c1 (stereo not given) 10 µM [inhibitor, partial curve, poor fit]
Cc1cc(Cl)ccc1C(O)c1ncc(-c2ccccc2C(F)(F)F)[nH]1 (stereo not given) 17.8 µM [inhibitor, single point]
CCNCc1ccc(OCc2cccs2)c(OCC)c1 5.01 µM [inhibitor, partial curve, poor fit]
Cc1cccc(C(=O)OCC(=O)N2CCCCCC2)c1C 14.1 µM [inhibitor, single point]
CCc1ccc(C(O)c2ncc(-c3ccccc3C)[nH]2)cc1 (stereo not given) 28.2 µM [inhibitor, single point]
CCN(CC)c1ccc(/C=N/N2CCN(Cc3ccc(Cl)cc3)CC2)c(O)c1 2 µM [inhibitor, partial curve, poor fit]
COc1cc(NC(=O)c2ccccc2)c(OC)cc1NC(=O)Cc1cccs1 8.91 µM [inhibitor, partial curve, poor fit]
O=c1[nH][nH]c2c1C(C1CCCCC1)OC(C1CCCCC1)C2 (stereo not given) 12.6 µM [inhibitor, partial curve, poor fit]
CCOc1ccc(-c2cnc3ccccc3n2)cc1 5.62 µM [inhibitor, partial curve, poor fit]
Cc1cc(C)c2c(CN(C)Cc3ccccc3)cc(=O)oc2c1 5.62 µM [inhibitor, full curve]
O=C(Nc1ccccc1N1CCN(C(=O)c2ccc(Cl)cc2)CC1)c1ccc2c(c1)OCO2 8.91 µM [inhibitor, partial curve, poor fit]
C=C(CN(C)C)C(=O)c1cc(C)ccc1C 12.6 µM [inhibitor, single point]
Cc1ccc(S(=O)(=O)N2C[C@H]3n4c(=O)ccc(=O)n4C[C@H](OC(=O)NCC4CCCCC4)[C@@]3(O)C2)cc1 7.94 µM [inhibitor, partial curve, poor fit]
COc1ccc(NCc2nc3ccccc3n2CCOc2ccccc2)cc1 28.2 µM [inhibitor, single point]
COc1cc(-c2coc3c(C(=O)NC4CCCCC4)cccc23)ccc1O 10 µM [inhibitor, single point]
CC(=O)c1ccc(OC(=O)N(c2ccccc2)c2ccccc2)cc1 7.08 µM [inhibitor, partial curve, poor fit]
CC(C)c1nnc(NC(=O)CCC(=O)N2CCN(c3ccc(Cl)cc3)CC2)s1 28.2 µM [inhibitor, single point]
